Test results published in PubChem BioAssay AID488969 (Vanderbilt High Throughput Screening Facility, 2010).
Whole data set: some 110,000 compounds, median “z-score” near -0.1, cut for the highest 2% near 2. The list shows a part of the results. Active and inactive are the calls of the source.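 How the source made its calls: active means z-score in the third read window above 3 or below -3; inactive means the rest.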 Residues, ends and D or L forms follow the SMILES beside them. *: point of attachment. Boc = CC(C)(C)OC(=O)*

These compounds were tested against Metabotropic glutamate receptor 8 (Rattus norvegicus) (UniProt P70579) (assay: rat mGluR8 modulators via GIRK flux, primary screen, cell-based, thallium flux, HTS (AID 488969)). Conditions: HEK293 rat mGluR8, GIRK (G protein-gated inwardly rectifying potassium channel) thallium flux, FluoZin2; at 10 µM; stronger effect = higher value; submaximal glutamate (EC20) added with thallium.
Chain of UniProt P70579 (P70579 whole entry, looked up): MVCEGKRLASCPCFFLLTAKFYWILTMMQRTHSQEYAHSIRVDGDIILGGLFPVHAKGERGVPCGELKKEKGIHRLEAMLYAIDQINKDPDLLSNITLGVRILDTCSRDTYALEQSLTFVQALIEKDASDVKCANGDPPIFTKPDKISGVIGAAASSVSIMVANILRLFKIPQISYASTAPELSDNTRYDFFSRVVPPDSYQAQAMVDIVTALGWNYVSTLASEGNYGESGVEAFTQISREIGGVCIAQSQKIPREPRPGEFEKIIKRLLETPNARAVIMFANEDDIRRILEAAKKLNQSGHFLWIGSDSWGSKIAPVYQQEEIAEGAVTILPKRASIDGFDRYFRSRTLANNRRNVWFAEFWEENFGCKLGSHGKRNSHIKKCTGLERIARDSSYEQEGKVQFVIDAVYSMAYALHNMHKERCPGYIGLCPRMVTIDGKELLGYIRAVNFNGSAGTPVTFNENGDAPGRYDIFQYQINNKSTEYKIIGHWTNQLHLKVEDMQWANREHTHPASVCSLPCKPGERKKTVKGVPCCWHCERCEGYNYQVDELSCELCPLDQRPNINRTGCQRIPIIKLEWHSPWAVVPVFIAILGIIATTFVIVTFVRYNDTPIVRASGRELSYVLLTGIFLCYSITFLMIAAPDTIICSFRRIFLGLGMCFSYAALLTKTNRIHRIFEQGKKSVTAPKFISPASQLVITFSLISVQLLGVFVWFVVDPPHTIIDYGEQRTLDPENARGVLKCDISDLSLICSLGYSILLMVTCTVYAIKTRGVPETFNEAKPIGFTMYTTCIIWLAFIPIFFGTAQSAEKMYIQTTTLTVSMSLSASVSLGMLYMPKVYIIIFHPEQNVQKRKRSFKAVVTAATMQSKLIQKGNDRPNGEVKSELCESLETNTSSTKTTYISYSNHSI
For `O=C(COc1ccccc1)Nc1ncc2c(n1)CCCC2=O`, the z-score was -0.118. With `COc1ccc(C2=NOC(C(=O)Nc3c(C)n(C)n(-c4ccccc4)c3=O)C2)cc1` (centres undefined) the z-score was -0.27. Compound `CC1CN(C(=O)CN2C(=O)c3ccccc3S2(=O)=O)CC(C)O1` (centres undefined) has a z-score of 0.257. With `CC(NCc1ccc(N(C)C)cc1)C1CC2CCC1C2` (centres undefined) the z-score was 0.634. With `CCOc1c2ccc(C(=O)NCCCCc3ccccc3)cc2nn1CC` the z-score was -0.333. `Cc1nc(NC(=O)/C=C/c2ccc(F)cc2)sc1C(=O)N(C)C` was tested, and the z-score was -0.464. Work on `O=C(Nc1ccc(N2CCN(C(=O)c3ccc(Cl)cc3)CC2)cc1)c1ccc(Br)o1` yielded a z-score of -0.401. For `CCc1[nH]c(=O)c(C#N)c2c1CSC(C)(C)C2`, the z-score was -0.436. In the case of `NS(=O)(=O)c1ccc(N/N=C2/CCCCC2C2CCCCC2)c([N+](=O)[O-])c1` (centres undefined), the z-score is reported as -0.414. For `CC(=O)c1sc(N)c(C(=O)OC(C)C)c1C`, the z-score was -0.043. `COC(=O)C(C(=O)OC)=C(/C=C/N(C)C)N(C)C` showed a z-score of 0.0749. `O=C(Nc1nnc(COc2ccc(Cl)cc2)s1)c1cccs1` was tested, and the z-score was 0.129. `O=C(Cn1c(CC(=O)N2CCOCC2)nc2ccccc21)Nc1ccc2c(c1)OC(F)(F)O2` was tested, and the z-score was 1.15. In the case of `O=C(O)CC(C(=O)NC1CCCCC1)C1CCCO1` (centres undefined), the z-score is reported as 0.524. `CC(=O)Nc1ccc(NC(=O)C(C)OC(=O)C2CC3C=CC2C3)cc1` (centres undefined) gave a z-score of -0.216. With `O=S(=O)(Nc1cc(Cl)ccc1N1CCCCC1)c1cccs1` the z-score was active: 7.03. Compound `CC(=O)Nc1ccc(S(=O)(=O)N=S(C)(C)=O)cc1` has a z-score of 0.711. Compound `O=C(CSc1nnc(Cc2cc(=O)[nH]c(=O)[nH]2)n1-c1ccccc1)N1CCCC1` has a z-score of 0.301. In the case of `CCOC(=O)c1cc(C(=O)OCC)cc(-n2c(C)cc(C(=O)CN3CCOCC3)c2C)c1`, the z-score is reported as -1.47. With `O=C(NNc1cccc(Cl)n1)c1cccnc1Cl` the z-score was -0.00142. With `CCc1ccc(NC(=O)c2noc3c2CCc2ccccc2-3)cc1` the z-score was 0.0778. For `CC1C2=C(CCCC2=O)N(c2cccc3ccccc23)C2=C1C(=O)CCC2`, the z-score was -0.482. For `O=S(=O)(c1cccs1)N1CCN(C/C=C/c2ccccc2)CC1`, the z-score was -0.24. Work on `CC(C)CCNC(=O)CC1Nc2c3ccccc3nc(=S)n2C1=O` (centres undefined) yielded a z-score of 0.212. `O=C(Cc1cccs1)Nc1nnc(SCc2ccc(Br)cc2)s1` showed a z-score of 0.299. In the case of `Cc1ccc(N2C(=O)C3C(c4ccccc4)N4CCCN4C3(C)C2=O)cc1` (centres undefined), the z-score is reported as -0.0168. `CC(C)(C)c1csc(NC2=NS(=O)(=O)c3ccccc32)n1` was tested, and the z-score was 0.285. In the case of `O=C(COc1ccccc1Cl)Nc1cnn(Cc2ccccc2)c1`, the z-score is reported as 1.06. In the case of `Cc1cccc(NC(=O)c2cccs2)n1`, the z-score is reported as 0.965. Compound `Cc1ccc(Nc2cc(C)nc3ncnn23)c(Cl)c1` has a z-score of -0.106. In the case of `CCOC(=O)C1CCCN(C(=O)CCn2nc(-c3ccccc3)ccc2=O)C1` (centres undefined), the z-score is reported as 1.49. Compound `COc1ccc2[nH]c(=O)c(CN(Cc3ccc4c(c3)OCO4)C(C)=O)cc2c1` has a z-score of 0.313. `O=C(NCCOc1ccccc1)c1cncc(Br)c1` was tested, and the z-score was 0.491. In the case of `CCC(=O)NCCc1nc2cc(NC(=O)c3ccc(OC)cc3)ccc2n1C`, the z-score is reported as -0.0389. For `CCOc1ccccc1Nc1ncccc1C(=O)O`, the z-score was 0.109. In the case of `COc1cc(SC#N)ccc1N=Cc1c(C)[nH]n(-c2ccc(C)cc2)c1=O`, the z-score is reported as 0.469. With `CS(=O)(=O)N(CC(=O)NC1CCCCCC1)Cc1ccc(Cl)cc1` the z-score was 0.0818. `O=C(O)c1cnn(-c2ccccc2)c1-n1cccc1` was tested, and the z-score was -1.69. `O=C(NCc1ccc2c(c1)OCO2)C1CCCN(S(=O)(=O)c2cccnc2)C1` (centres undefined) showed a z-score of 0.0477. `COc1ccc(CCNC(=O)C(=O)NCc2ccc(C)cc2)cc1OC` gave a z-score of -0.0887. Compound `CCOC(=O)N1CCN(C(=O)CCSc2ccccc2)CC1` has a z-score of 0.0832. In the case of `O=C(O)c1ccc2c(=O)[nH]c(CN3CCOCC3)nc2c1`, the z-score is reported as 0.0476. Compound `CN(C)/C(CN1CCCCC1)=C1\N=C(c2ccccc2)OC1=O` has a z-score of 0.195. With `Fc1ccc(-c2nc3ccccc3c3nc4ccccc4n23)cc1` the z-score was -0.798. Work on `Cc1ccc(S(=O)(=O)NC(CC(=O)NCc2ccco2)c2ccco2)cc1` (centres undefined) yielded a z-score of 0.203. `C/C=C/c1ccc(OCCCNC)c(OC)c1` was tested, and the z-score was 0.0523. Compound `CCOC(=O)C(Cc1ccc(O)cc1)NC(=O)CNC(=O)C(CC(C)C)NC(=O)OC(C)(C)C` (stereo not drawn) (Boc-Leu-Gly-Tyr-OEt; configuration not given here) has a z-score of 0.106. Work on `CC(=O)OCc1cc(=O)n(C)c(=O)n1C` yielded a z-score of -0.366. For `COCCCNC(=O)CCn1c(=O)c2ccccc2n(CC(=O)Nc2c(C)cccc2C)c1=O`, the z-score was -0.371. `CCn1c(SCC(=O)NCCc2ccc(F)cc2)nnc1-c1cccs1` was tested, and the z-score was -0.241. Compound `Cc1ccc(NC(=O)CN(C)C(=O)CSc2nc3ccccc3c(=O)n2Cc2ccco2)cc1` has a z-score of -0.0496. `Cc1c(N2C(=O)c3ccc(Br)cc3C2=O)c(=O)n(-c2ccccc2)n1C` was tested, and the z-score was 0.29. `COc1ccc(-n2c(SCc3nnc(-c4ccccc4)o3)nnc2-c2ccccc2)cc1` showed a z-score of -0.24. `COC(=O)Nc1ccc(S(=O)(=O)N2CCCc3ccccc32)cc1` showed a z-score of 0.814. In the case of `O=C(CN1CCN(CC(=O)Nc2ccccn2)CC1)Nc1ccccn1`, the z-score is reported as -0.212. `CCC(CC)=NNC(=O)c1ccccc1OCc1ccc(F)cc1` showed a z-score of -0.381. Work on `CSc1nc2sc3c(c2c(=O)[nH]1)CCC(C)C3` (centres undefined) yielded a z-score of 0.17. With `CC(C)C[C@H](NC(=O)OC(C)(C)C)C(=O)N/N=C/c1ccc2nccnc2c1` the z-score was -0.19. For `C=C(C)C1CC=C(C)/C(=N/NC(=O)COc2cccc(C)c2)C1` (centres undefined), the z-score was active: 8.9. With `Cc1ccc(-c2nnc(-c3ccc(NC(=O)c4cccs4)cc3)o2)cc1` the z-score was -0.0655. With `CN(C)S(=O)(=O)c1ccc(NC(=O)CSc2ncnc3ccccc23)cc1` the z-score was -0.779. Work on `CCOc1nc(NCCc2ccc(OC)c(OC)c2)nc(N2CCN(c3ccc(OC)cc3)CC2)n1` yielded a z-score of 0.0164. Work on `CCN(CC)C(=O)c1c2c(nc3ccccc13)-c1ccccc1CC2` yielded a z-score of -0.522. `CCNC(=O)C1CC(=O)N(Cc2ccc(F)cc2)C(=Nc2ccc(OC)cc2)S1` (centres undefined) gave a z-score of -0.481. With `CCN=c1sc(C(=O)OC)cc(=O)n1CC` the z-score was -0.358. In the case of `CN(C)C(=O)c1cc(Cl)ccc1Sc1cc(Cl)ccc1Cl`, the z-score is reported as 0.0382. In the case of `CN1CCN(c2ccc(NC(=O)Cc3ccccc3)cc2)CC1`, the z-score is reported as 0.552. With `COc1ccc(CN(C(=S)Nc2ccccc2)C2CC(=O)N(c3ccc(F)cc3)C2=O)cc1` (centres undefined) the z-score was -0.141. Compound `CCOC(=O)NN1C(=O)c2ccccc2NC1c1ccccc1` (centres undefined) has a z-score of -0.112. `CCN(CC)c1ccc(NC(=O)Nc2ccc(C(C)=O)cc2)cc1` showed a z-score of 0.209. Work on `COc1ccc2c(c1)C1NC(=S)NC(C)(O2)C1C(=O)Nc1ccc(Cl)cc1` (centres undefined) yielded a z-score of -0.5. Work on `COC(=O)CCC(=O)Nc1ccc(S(=O)(=O)N2CCCCCC2)cc1` yielded a z-score of 0.281. With `Nc1nc(Br)c2c(F)cccc2c1-c1ccc(F)cc1` the z-score was 0.0126. For `Cc1cccc(-c2c3c(=O)n(C)c(=O)n(C)c3cn2C2CCCCC2)c1`, the z-score was -0.809. For `COc1ccc(/C=C/C(=O)NC(=S)NNC(=O)c2cccnc2)cc1`, the z-score was -0.12. In the case of `Cc1cc(=O)oc2cc(Oc3ccc([N+](=O)[O-])cc3[N+](=O)[O-])ccc12`, the z-score is reported as 0.0534. For `Cc1c(N2C(=O)c3ccccc3C2=O)c(=O)n(-c2ccccc2)n1C`, the z-score was 0.287. `N#Cc1cnn(-c2ccccc2)c1N` was tested, and the z-score was 0.286. With `COc1cccc(CNC(=O)Cc2ccc(Br)cc2)c1` the z-score was -0.136. `O=C(Nc1ccccc1)N(Cc1ccc(Cl)cc1)CC(O)C(F)(F)F` (centres undefined) was tested, and the z-score was 0.189. `Cc1cc(Cl)c(S(=O)(=O)NCc2cccnc2)cc1OCC(=O)NC1CCCCC1` gave a z-score of -0.0894. With `CCOc1ccc(-c2ccc(C=O)o2)c([N+](=O)[O-])c1` the z-score was -0.55. Compound `CCC(NC(=O)C1CCC1)c1ccccc1` (centres undefined) has a z-score of -0.0824. `C=C(C)COc1ccc2c(C)c(CC(=O)OC)c(=O)oc2c1C` showed a z-score of -0.319. In the case of `CCNc1nnc(-c2ccc(C)cc2)o1`, the z-score is reported as 2.74. `Cc1nc2ccc(Nc3nc4cc(S(=O)(=O)N5CCOCC5)ccc4o3)cc2s1` showed a z-score of -0.359. `O=C(COc1ccc(Cl)cc1)N1CCN(c2ccc([N+](=O)[O-])c(N3CCOCC3)c2)CC1` showed a z-score of -0.0381. In the case of `Cc1ccc2cccc(NC(=O)c3ccc(Br)o3)c2n1`, the z-score is reported as -0.503. `O=C(NCc1ccccc1)Nc1cccn(Cc2cccc(F)c2)c1=O` was tested, and the z-score was -0.0902. `CCCCOc1ccc(-c2ncc(Cl)cn2)cc1` was tested, and the z-score was -0.335. `O=C(O)c1cc(-c2ccccc2)n(-c2ccccc2)n1` gave a z-score of 0.0224. `COc1ccc(N2C(=O)c3ccccc3NC23CCCCC3)cc1` gave a z-score of -0.554. Compound `COc1ccc(CCNc2oc(-c3ccc(OC)c(OC)c3)nc2P(=O)(OC)OC)cc1OC` has a z-score of -0.308. In the case of `COc1ccc(CCNC(=O)c2c(O)c3c([nH]c2=O)CCCC3)cc1`, the z-score is reported as -0.378. `CC1CC(c2ccccc2)n2nc(N3C(=O)c4ccccc4C3=O)nc2N1` (centres undefined) gave a z-score of 1.04. `COc1cc(-c2nc3ccccn3c2/N=C/c2cc(OC)c(OC)c(OC)c2)ccc1O` was tested, and the z-score was -0.685. `O=C(Nc1nc(-c2ccccc2)c(-c2ccccc2)s1)c1ccc(S(=O)(=O)N2CCCC2)cc1` gave a z-score of -0.193. With `COc1ccc(NC(=O)/C(C#N)=C\c2cc(C)n(-c3ccc(Oc4ccc([N+](=O)[O-])cn4)cc3)c2C)cc1` the z-score was 0.0192. `CCOC(=O)Nc1ccc2c(c1)Sc1ccccc1N2C(=O)CCN1CCOCC1` showed a z-score of 0.597. Compound `Cc1ccc(OCc2nnc(SCc3cc(=O)[nH]c4ccccc34)n2-c2ccccc2)cc1` has a z-score of -0.236. `COc1ccc(Cl)cc1-c1nc(-c2ccc(Br)o2)no1` showed a z-score of -0.0916. For `CN(C)CCNC(=O)C(C(=O)c1ccc(F)cc1)n1ccccc1=O` (centres undefined), the z-score was 0.832. With `C=CCn1c(SCc2ccc(C(=O)Nc3ccccc3)cc2)nnc1-c1ccccc1` the z-score was -0.127. `Cc1ccc(-c2noc(CSc3nnc(-c4ccccc4)n3C)n2)cc1` showed a z-score of -0.179. Compound `CC(C)C[C@H](NC(=O)OC(C)(C)C)c1nnc(SCc2ccccc2)o1` has a z-score of -1.44. Work on `O=C(/C=C/Nc1ccc(F)cc1)c1ccco1` yielded a z-score of -0.125. Compound `CCOc1ccc2[nH]c(=O)c(CN(Cc3nnnn3Cc3ccccc3)CC3CCCO3)cc2c1` (centres undefined) has a z-score of -0.254. With `Cc1cccc(C(=O)NC(=S)Nc2ccc(S(=O)(=O)N3CCCCC3)cc2)c1` the z-score was -0.0168. `CNC(=O)c1ccc(-n2nc(C)cc2-c2ccccc2)cc1` gave a z-score of -0.167.
